Tests used:
[1] = biological target: mouse KLB and mouse FGFR1c co-expressed on HEK293/mKLB/mFGFR1c/SRE-Luc cells (mouse); test: FACS on stable HEK293 cells, 67 nM
[2] = biological target: mouse KLB and mouse FGFR1c co-expressed on HEK293/mKLB/mFGFR1c/SRE-Luc cells (mouse); test: cell-based or functional assay

MFI Ratio to unstained cells [1]: 9 fold
EC50, SRE-luc activation [2]: 0.87 nM
maximum activation relative to His6-hFGF21 [2]: 44%
B1: Fusion 3 (Homodimer) (Fc fusion)
chain: QVQLVESGGGVVQPGRSLRLSCVASGFTFSSYGMHWVRQAPGKGLEWVAVISFDGSNKYYADSVKGRFTISRDNSKNTLYLQMNSLRPADTAVYYCAKDRSNYYYFGMDVWGQGTTVTVSSGGGGSGGGGSGGGGSDIVMTQTPLSLPVTPGEPASISCRSSQSLLDSDDGNTYLDWYLQKPGQSPQLLIYTLSYRASGVPDRFSGSGSGTDFTLKISRVEAEDVGVYYCMQRIEFPLTFGGGTKVEIKGGGGSGGGGSGGGGS[human IgG4 Fc with S228P (EU numbers) not spelt out]GGGGSGGGGSGGGGSLLQFGGQVRQRYLYTDDAQQTEAHLEIREDGTVGGAADQSPESLLQLKALKPGVIQILGVKTSRFLCQRPDGALYGSLHFDPEACSFRELLLEDGYNVYQSEAHGLPLHLPGNKSPHRDPAPRGPARFLPLPGLPPAPPEPPGILAPQPPDVGSSDPLSMVGPSQGRSPSYAS

From US20170174769A1
